# Results are given in words; binding and its absence hold for the method and conditions named. In cells and extracts the contact can be indirect. Some entries that bind do so weakly or less than the wild type.
# Protein sequences, listed by entry. Tags and fused reporters are not part of them.
# UniProt O60260: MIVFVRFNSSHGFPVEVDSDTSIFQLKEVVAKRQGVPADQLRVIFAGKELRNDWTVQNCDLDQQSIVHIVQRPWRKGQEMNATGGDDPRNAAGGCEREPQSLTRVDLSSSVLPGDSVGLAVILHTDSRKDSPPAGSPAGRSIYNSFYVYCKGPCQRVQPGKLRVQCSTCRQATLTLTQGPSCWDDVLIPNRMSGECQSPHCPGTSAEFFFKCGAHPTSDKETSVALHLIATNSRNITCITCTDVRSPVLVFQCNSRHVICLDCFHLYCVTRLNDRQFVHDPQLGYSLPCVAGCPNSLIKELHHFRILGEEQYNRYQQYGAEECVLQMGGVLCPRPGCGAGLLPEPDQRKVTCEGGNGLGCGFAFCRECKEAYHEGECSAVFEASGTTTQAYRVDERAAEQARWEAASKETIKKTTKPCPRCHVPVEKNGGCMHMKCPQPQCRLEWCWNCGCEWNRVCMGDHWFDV
# UniProt P14618: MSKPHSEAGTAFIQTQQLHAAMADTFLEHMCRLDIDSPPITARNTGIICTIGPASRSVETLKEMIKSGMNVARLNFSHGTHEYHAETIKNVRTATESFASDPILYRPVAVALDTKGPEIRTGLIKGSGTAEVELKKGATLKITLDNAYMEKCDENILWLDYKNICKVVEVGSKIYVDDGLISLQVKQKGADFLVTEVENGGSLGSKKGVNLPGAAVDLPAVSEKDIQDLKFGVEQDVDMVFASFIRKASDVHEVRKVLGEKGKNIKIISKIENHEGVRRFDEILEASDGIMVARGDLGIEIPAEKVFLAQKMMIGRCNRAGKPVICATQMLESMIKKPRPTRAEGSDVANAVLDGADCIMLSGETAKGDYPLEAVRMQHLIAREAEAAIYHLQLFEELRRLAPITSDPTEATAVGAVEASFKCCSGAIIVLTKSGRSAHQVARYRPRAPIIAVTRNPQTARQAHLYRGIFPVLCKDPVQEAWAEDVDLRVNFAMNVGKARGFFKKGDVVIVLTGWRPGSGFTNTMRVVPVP
# How the values were obtained:
# [1] = biological target: GFP‐PRKN expressed in HEK‐293T cells (UniProt O60260); experiment: co-IP; HEK-293T cells expressing the constructs, NP-40 lysis buffer with 1% PMSF, antibody overnight at 4 °C, magnetic beads, western blotting (Figure 5A middle and bottom, Figure 5H)
# [2] = biological target: E3 ubiquitin‐protein ligase parkin (PRKN), endogenous in PANC‐1 cells (human (endogenous in PANC-1)) (UniProt O60260); experiment: co-IP; PC cells treated with 10 µM orlistat for 48 h (Figure 7E)
# [3] = biological target: E3 ubiquitin‐protein ligase parkin (PRKN), endogenous in PANC‐1 cells (human (endogenous in PANC-1)) (UniProt O60260); experiment: co-IP; anti-PRKN antibody, PANC-1 cells with rising doses of His-HACD2 (Figure 5C)
# [4] = biological target: E3 ubiquitin‐protein ligase parkin (PRKN), endogenous in PANC‐1 cells (human (endogenous in PANC-1)) (UniProt O60260); experiment: co-IP; PRKN immunoprecipitated from PANC-1 cells transduced with HACD2, PKM2, PRKN or a vector control; blots for PKM2 and HACD2 (Figure 5B)
binding [1],binding [2],binding [3],binding [4],Substance
binds,–,–,–,Flag‐PKM2 expressed in HEK‐293T cells (from UniProt P14618 1-531)
–,binds,binds,binds,"pyruvate kinase PKM (PKM2), endogenous in PANC‐1 cells (from UniProt P14618 1-531)"

# Reference: publication PMC11904967
